The list shows a part of the results. At the low end of the ranking, values are background and their order means little. Measured with an extract: partners may take part in the binding.

Consider 93 sequences from paper PMC10726135.

In the experiment the target is T1, HNF4alpha8 (COS-7 nuclear extract) (UniProt P41235-5).
T1 sequence: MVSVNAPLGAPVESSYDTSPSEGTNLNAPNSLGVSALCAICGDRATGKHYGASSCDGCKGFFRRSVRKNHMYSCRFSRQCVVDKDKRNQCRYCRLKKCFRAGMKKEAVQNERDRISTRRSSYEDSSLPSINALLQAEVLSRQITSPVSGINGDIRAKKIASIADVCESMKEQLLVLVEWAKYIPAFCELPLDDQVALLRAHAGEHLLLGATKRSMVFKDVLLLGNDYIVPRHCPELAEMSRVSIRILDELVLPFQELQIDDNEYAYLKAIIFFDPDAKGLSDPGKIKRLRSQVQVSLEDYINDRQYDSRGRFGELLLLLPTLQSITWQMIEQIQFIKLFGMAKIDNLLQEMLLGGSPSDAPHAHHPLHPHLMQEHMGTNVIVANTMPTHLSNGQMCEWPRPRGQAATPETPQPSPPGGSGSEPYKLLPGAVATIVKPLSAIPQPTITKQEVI
The experiment in a line: protein-binding microarray. As to conditions: COS-7 nuclear extract on double-stranded Agilent 4x180k PBM; binding buffer, salt, pH and temperature not given; high values mean tight binding; double strand, one strand shown; sequences stand for … in …GCCTAGGGAGATTAGAGTATCGGTCGA
In the case of GCTCAGTAAATTATCTTGATGGTTAAAGTC, the binding signal (log2 normalized intensity) turned out to be 0.961.

On to GCCAATTAGAAGGCTCCCTGCTGCGGAGAG, for which the binding signal (log2 normalized intensity) is -1.23.

For the sequence CCTGAAATTGAGATGAGATGGTCAAAGGTT, the binding signal (log2 normalized intensity) came out at 5.38.

Regarding GCAGCGGGCAGCCCGTGTGGGCGGGTGCAG, the binding signal (log2 normalized intensity) is -1.31.

For the sequence ACCATGAGAGGGTTAAAAACCAGAATGACA, the binding signal (log2 normalized intensity) is -1.27.

Take GCAGATGAAGTCCAAAGGCCATCTGCTGGA: the binding signal (log2 normalized intensity) is 3.73.

Consider GTTATCAACCTTATCAGCAGGACACCAAAC, for which the binding signal (log2 normalized intensity) was -1.21.

Consider GGATTAAAGGATCAACTTTCAGAAGGGGAC, for which the binding signal (log2 normalized intensity) is -1.26.

For the sequence TGCTATTAAGCACTAGAAAGTCTTGAAGTC, the binding signal (log2 normalized intensity) is -1.01.

For AGATGAGCTCTGAACTAACAATTCTTTCTG, the binding signal (log2 normalized intensity) is -1.36.

For TGGTGAGCAGGTTAATTATAATCGCAGAAT, the binding signal (log2 normalized intensity) was -1.09.

For CACCCTCAAATCAGTGAAGGCCTCTGATGA, the binding signal (log2 normalized intensity) was -0.925.

For TGTTTGCATAAAGTTAAACTTTAAATTTGC, the binding signal (log2 normalized intensity) was -0.158.

On to AAGTACACACTGTACCCGTCCACCTTTGGA, for which the binding signal (log2 normalized intensity) turned out to be 3.27.

As for TCCCCAGATTCCAGGGGAGGGTAAGAGTCC, the binding signal (log2 normalized intensity) is 2.84.

As for TTCTACTCTCCCCAGTTCAAAGGTTAAGAC, the binding signal (log2 normalized intensity) was 6.04.

Take AAGGTTCCAGGGAACTGTCCACCAAGGAGG: the binding signal (log2 normalized intensity) was -1.44.

For CACTAAAGTTACAAGATCTTTGGACTATTG, the binding signal (log2 normalized intensity) was determined as 4.2.

Consider GTGCTAGAGAAAGGACCAGTTGAGTGCAAA, for which the binding signal (log2 normalized intensity) is -1.18.

As to CCGGCAGCAGCCTTGCCTTTGATGTGTCCA, the binding signal (log2 normalized intensity) was determined as 0.179.

Take GTTTACATTCCAGGGTGAAATTCAACAGAA: the binding signal (log2 normalized intensity) is -1.27.

As to TGTACCTTTGACTATGGGCATGAAGTCAAA, the binding signal (log2 normalized intensity) was found to be 0.725.

In the case of CACCCCACCCCCTATCTTGTGTAATAACGA, the binding signal (log2 normalized intensity) was 3.12.

Take TGCAGTACTATGCAATAACCAGGGAGTGGC: the binding signal (log2 normalized intensity) is -1.35.

For CTGCCAAAGGTAAAAAATGCAAGTTTATCG, the binding signal (log2 normalized intensity) came to 0.0715.

Consider AAGCCTTTCTGAGGAGCTAACAGTAAAACT, for which the binding signal (log2 normalized intensity) was -1.37.

GATGGGCAACTGTCCGAGTTGTCAAAAGGG: the binding signal (log2 normalized intensity) was -1.3.

Take GTAAGCACAAAGTACAGCTTTTTGTTTGTG: the binding signal (log2 normalized intensity) was found to be 2.02.

As to TTGAAGCTCTGGTTCAAACAAGGCCAAAGT, the binding signal (log2 normalized intensity) is 2.22.

As to AGTTACGTAATGTGTCCCCACATCTGTGAA, the binding signal (log2 normalized intensity) was determined as 2.08.

In the case of CTTCTCATCTTTATCATGTGGTATTAACAT, the binding signal (log2 normalized intensity) came out at 2.08.

With GGGACCTGAGAACATGTAATCATTTGGGAC, the binding signal (log2 normalized intensity) is -0.395.

Consider GCAAACTCTAGCTGTCCTCCTCTGAAGGAA, for which the binding signal (log2 normalized intensity) was -1.35.

In the case of ACGTCATTTTGTCACCTACATGTGAGAGAG, the binding signal (log2 normalized intensity) is 0.794.

On to CCAGCTAAAACTGCAGATTGACTCAGGCAT, for which the binding signal (log2 normalized intensity) was -1.42.

For GTTCACAATAAGAGGGTATACTATTTGCTA, the binding signal (log2 normalized intensity) was -1.33.

Take CCTAAGCCCTGCTCAGGGAATGTGGGTCCA: the binding signal (log2 normalized intensity) is 2.92.

AGCATGTTTGGTGACCCGTGACCCTCAGGA: the binding signal (log2 normalized intensity) is 3.82.

CGCATGCATAACCAAACAGAGAGAAAGCAG: the binding signal (log2 normalized intensity) is -1.19.

On to TACCTGTTTGCAAGCCCAAAGCCCCCAGAG, for which the binding signal (log2 normalized intensity) came out at 3.36.

Take GGCCCAGAGCACAACCTTTGGCCGTGCATG: the binding signal (log2 normalized intensity) is 3.61.

Turning to ATCCTCAGGGTTCATAGATGATAGTGATAA, the binding signal (log2 normalized intensity) worked out at 0.986.

With GGCTTTTGCAGTCACTCTCTAGAATGAGCC, the binding signal (log2 normalized intensity) was -1.22.

As to CAGGATTCTTGCTACAACTGGACTAGACAG, the binding signal (log2 normalized intensity) stood at 0.371.

In the case of TGACCTGCAATGAAAGTCCACTTGTCTGGC, the binding signal (log2 normalized intensity) was determined as 2.29.

As for TTGCCCACCCCCCAAGTAGAGAGCAATTAT, the binding signal (log2 normalized intensity) turned out to be 4.

Regarding TAGAAGAAAGCTTCATAGTGGTTTGACTTT, the binding signal (log2 normalized intensity) was 1.67.

With TACAAAACCCCTTATCAGGTAGAACATTGC, the binding signal (log2 normalized intensity) amounted to 0.929.

On to CTGGGAAGGCTCGTTCTCGCGAGAGTTCAG, for which the binding signal (log2 normalized intensity) came out at 0.971.

For the sequence TTAGAGGCTCAGGTAAAGGCATGCTTGGCA, the binding signal (log2 normalized intensity) is -1.51.

AGTATTCATTCCCCTAGTATATTGGCTTGG: the binding signal (log2 normalized intensity) worked out at 1.9.

GAACCCAGACTGCATTTTCATCTTGCCTTT: the binding signal (log2 normalized intensity) is 0.725.

On to TGTGCTATTTTTGGCTTGGTTCCACATCAG, for which the binding signal (log2 normalized intensity) came out at 0.97.

Consider GACCCAGGAGCCTTCCGGAGGCTCTGCTGA, for which the binding signal (log2 normalized intensity) was -1.29.

In the case of GAAACTAAAGTCTGTTTGATTCCATGCTGA, the binding signal (log2 normalized intensity) worked out at 0.363.

ACATAACAGGTTTGTAACTTCTTGGCCTGC: the binding signal (log2 normalized intensity) is -0.168.

As to GCTGCAGGCATGAGAGGTGCTGCATGGGCT, the binding signal (log2 normalized intensity) is -1.27.

On to CCTCCCCTAGACTTACTATTATGCCTTGAC, for which the binding signal (log2 normalized intensity) was found to be 0.491.

TCCTTAGATAAAAAGCTTTTCTTCCCCCCT: the binding signal (log2 normalized intensity) came to 4.4.

GGAGGGAGGAGCACAGAAGGAGAGAGAGGG: the binding signal (log2 normalized intensity) is -1.27.

In the case of ATTTGCGATAATAGAGATTGCTTAATGCAA, the binding signal (log2 normalized intensity) was -0.917.

As to ACATTGCATTCCACCCTGGCAGAGGAAAAA, the binding signal (log2 normalized intensity) was -1.

Take TCTTCAAGAGGCCCATCTCACACATAATGA: the binding signal (log2 normalized intensity) is -1.13.

As to GCGGGCGGACTCCGAGCCATTTTGGAGCCG, the binding signal (log2 normalized intensity) is -1.34.

Turning to TATAAAGGTCAACTGCCCTCTCAAATTACA, the binding signal (log2 normalized intensity) was 2.25.

As for TTTGACAAAAAATGATGAATTTTCATCCCT, the binding signal (log2 normalized intensity) was -1.33.

Consider CCCCAACAAAGCTCTGCATCCTTCCCTAAG, for which the binding signal (log2 normalized intensity) is -1.3.

For the sequence GCAGACTCCCTAGAAGAGTGAACCTAGTGG, the binding signal (log2 normalized intensity) amounted to 0.866.

As to GTTTGATAGAGAAGTTTTGAAACCCTGTTC, the binding signal (log2 normalized intensity) was -0.116.

Consider GTGACTAAATGAGAAGAAATGATGGGTGCC, for which the binding signal (log2 normalized intensity) was -1.35.

Consider GAGTGATCCTGAAAACAAATAGAGCAGACT, for which the binding signal (log2 normalized intensity) was -1.38.

As to ACTAGCCAAACAGGTTGGGGAGGTTTGGCT, the binding signal (log2 normalized intensity) was -0.859.

CTTGTGATTACACTGGGCTCACCTGAATGA: the binding signal (log2 normalized intensity) was -1.08.

As for GCCTGGGAAAATGTTGATTACGTGTTCCCA, the binding signal (log2 normalized intensity) was 1.01.

Take ATCTTGCCTGTTGTATGGTTTTGTGCTAGA: the binding signal (log2 normalized intensity) was 1.35.

With AACACTTTCTAAGGACACAACAGAATGTGA, the binding signal (log2 normalized intensity) is -0.0772.

As to TCTGCAAACACCCCTCCCCCACACAGACAA, the binding signal (log2 normalized intensity) amounted to 5.11.

GGAGTTTCAGAGGACTGCCCAGCTGCATCC: the binding signal (log2 normalized intensity) is -1.2.

Consider TGAACACTTCTTTGTTACTTACAGACTTTC, for which the binding signal (log2 normalized intensity) was found to be 0.669.

For CAGTTTCTCTGTGAATCCACAGTAAAACAT, the binding signal (log2 normalized intensity) is -1.22.

CCAGGCAGCACAATTTGTGTCTCTCACCTG: the binding signal (log2 normalized intensity) was -1.33.

GAGGGCTGCTTATCTAGGATGAGAATCCAC: the binding signal (log2 normalized intensity) was -1.18.

CAACCACACCAACATGGACTTTGTCACAAG: the binding signal (log2 normalized intensity) came out at 6.62.

Regarding GAAAAAACCCATCCACCCATCCAAAGGTCA, the binding signal (log2 normalized intensity) turned out to be 5.42.

On to GTGAGAAGGGGTAGTGATCCTGGTAGGGGG, for which the binding signal (log2 normalized intensity) is -1.25.

As for CTGATCTTAAGTTGTACCTGACTAAAACCT, the binding signal (log2 normalized intensity) was -0.461.

With TGCAGCAGCATCCAGCCCCAGGCTGAGCGT, the binding signal (log2 normalized intensity) was -1.42.

For the sequence GATACAGCATGGCCCAGGGACTCAGGCACA, the binding signal (log2 normalized intensity) was -1.3.

For the sequence GGTAAAATAAGGCTGCGACCTGCTGGGCTG, the binding signal (log2 normalized intensity) is -1.17.

For TCCAGAAAGCAACAAAAACCAAATCACAAT, the binding signal (log2 normalized intensity) was -1.36.

CTGGAGATAATAGTGGCTGAAAGTACTGGC: the binding signal (log2 normalized intensity) was -1.29.

Take TGGGTATAGGCGCGCGTGTGTGTGTGTGTG: the binding signal (log2 normalized intensity) turned out to be 2.66.

GGGCACTGCCCTTTGGAACCTGCCCTCTGT: the binding signal (log2 normalized intensity) turned out to be 5.74.
